According to PMC4336329 (PLoS ONE, 2015):
Out of some 310,000 compounds screened, about 14,000 (4.5%) showed an effect of 50% or more. The effect is printed as a negative number. This is one part of the list.

Biological target: human ether-à-go-go-related gene (hERG) potassium channel (human, UniProt Q12809)
Experiment: primary screen, population patch clamp on CHO cells stably expressing hERG
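Note: peak tail current of the secondary pulse compared with the same well before compound.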

human ether-à-go-go-related gene (hERG) potassium channel, sequence (Q12809 whole entry, looked up): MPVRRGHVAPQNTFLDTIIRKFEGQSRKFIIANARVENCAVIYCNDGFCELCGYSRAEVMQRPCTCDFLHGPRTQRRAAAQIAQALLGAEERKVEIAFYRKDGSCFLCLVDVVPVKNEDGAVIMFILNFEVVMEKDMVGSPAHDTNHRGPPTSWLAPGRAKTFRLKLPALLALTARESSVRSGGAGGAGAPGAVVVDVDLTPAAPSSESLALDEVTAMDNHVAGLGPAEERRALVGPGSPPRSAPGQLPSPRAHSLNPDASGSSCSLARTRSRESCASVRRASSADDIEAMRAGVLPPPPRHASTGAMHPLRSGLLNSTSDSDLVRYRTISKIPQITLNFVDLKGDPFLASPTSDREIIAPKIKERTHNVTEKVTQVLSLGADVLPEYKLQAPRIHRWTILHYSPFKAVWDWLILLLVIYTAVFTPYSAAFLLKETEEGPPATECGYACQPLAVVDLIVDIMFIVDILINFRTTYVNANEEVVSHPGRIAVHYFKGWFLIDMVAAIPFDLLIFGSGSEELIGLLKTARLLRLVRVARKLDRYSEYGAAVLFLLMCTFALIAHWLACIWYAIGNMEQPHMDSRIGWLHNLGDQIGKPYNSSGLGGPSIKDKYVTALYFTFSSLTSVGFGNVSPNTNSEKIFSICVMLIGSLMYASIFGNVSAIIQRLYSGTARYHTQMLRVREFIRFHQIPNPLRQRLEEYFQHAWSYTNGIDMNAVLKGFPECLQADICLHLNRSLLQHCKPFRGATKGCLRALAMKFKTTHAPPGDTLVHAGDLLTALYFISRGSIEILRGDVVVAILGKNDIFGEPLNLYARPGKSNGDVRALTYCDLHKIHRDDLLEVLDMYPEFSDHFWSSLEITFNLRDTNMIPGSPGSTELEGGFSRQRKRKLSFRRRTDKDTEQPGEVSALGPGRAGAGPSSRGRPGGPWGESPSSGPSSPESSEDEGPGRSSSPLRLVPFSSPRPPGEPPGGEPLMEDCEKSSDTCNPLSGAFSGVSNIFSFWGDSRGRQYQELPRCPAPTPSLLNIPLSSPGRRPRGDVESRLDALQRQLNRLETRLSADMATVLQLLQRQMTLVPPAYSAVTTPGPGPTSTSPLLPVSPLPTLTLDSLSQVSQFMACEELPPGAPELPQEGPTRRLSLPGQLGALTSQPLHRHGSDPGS

Row | Structure (SMILES) | hERG current change (%, negative = inhibition) at 10uM [%]
1 | Nc1nc(SCC(=O)Nc2ccc3c(c2)OCO3)n[nH]1 | 14.7
2 | Cc1ncsc1C(=O)N1CCCC(C(=O)c2ccc3ccccc3c2)C1 (stereo not shown) | -21.6
3 | Cc1cccc(-n2ncc(C#N)c2-n2cccc2)c1 | -5.85
4 | CC1CCN(C(=O)c2cc(N3C(=O)C4C5CCC(C5)C4C3=O)ccc2Cl)CC1 (stereo not shown) | -11
5 | COC(=O)C1=C(c2ccc(F)cc2OCc2ccccc2)C[C@@H]2CC[C@H]1N2C(=O)N1CCCCC1 | -9.9
6 | COC(=O)C1=C(C)N(Cc2ccco2)C(=O)N[C@H]1c1ccccc1 | 5.72
7 | CN(C)CCCNC(=S)N(Cc1cccs1)Cc1cc2cc3c(cc2[nH]c1=O)OCCO3 | 6.79
8 | CCC1COCCS(=O)(=O)N1Cc1ccccc1C (stereo not shown) | 3.01
9 | Cc1ccccc1CNC(=O)c1ccccc1NS(C)(=O)=O | 12.4
10 | COc1ccc(C(=S)N2CCCCC2)cc1Br | 9.9
11 | CCCCNC(=O)NC1C(NC(=O)NCCCC)N(C)C(=O)N1C (stereo not shown) | 15.8
12 | COc1ccc(CNCC(O)COc2ccc(C(C)(C)c3ccccc3)cc2)cc1.O=C(O)C(=O)O (stereo not shown) | -12.3
13 | CCOc1ccc(C(=O)Nc2ccc(N3CCN(C(C)=O)CC3)cc2)cc1[N+](=O)[O-] | -45.5
14 | CSc1ccc(CN(C)C(=O)C2CCN(C(=O)Nc3ccccc3)CC2)cc1 | -67.4
15 | COc1ccc(C/C(N)=N/OC(=O)c2ccc(Cl)cc2)cc1 | 11.5
16 | Cc1cc(CNC(=O)COc2c(F)c(F)cc(F)c2F)c2ccccc2n1 | 7.35
17 | O=C(c1cc([N+](=O)[O-])ccc1N1CCOCC1)N1CCN(S(=O)(=O)c2ccc(F)cc2)CC1 | -32.5
18 | Cl.c1cc(Nc2ncnc3sc4c(c23)CCC4)ccn1 | 19.3
19 | C/C(=N\NC(=O)c1ccc(OC2CCCC2)cc1)c1ccc(O)cc1 | 12
20 | CC1CC(C)CN(S(=O)(=O)c2ccc(NC(=O)C3COc4ccccc4O3)cc2)C1 (stereo not shown) | 15.5

Row | Structure (SMILES) | hERG current change (%, negative = inhibition) at 10uM [%]
21 | COc1ccc(NC(=O)CC2C(=O)NC3CCCCC3N2C(=O)c2ccc(F)cc2)cc1 (stereo not shown) | 13.8
22 | CCC(=O)Nc1cccc(NC(=S)NC(=O)c2ccc(Cl)cc2Cl)c1 | 3.21
23 | COc1ccccc1/C=C(/C(=O)OCC(N)=O)c1ccccc1 | -5.21
24 | Cc1cc(N2CCN(C/C=C/c3ccccc3)CC2)n2ncnc2n1 | -71.5
25 | O=C(Cn1cnc2c(nnn2-c2ccccc2)c1=O)NCc1ccc(F)cc1 | 3.39
26 | Cc1ccc2cc(CCNC(=O)CC(C)C)c(=O)[nH]c2c1 | -1.02
27 | CC1C/C(=C/c2cccs2)C(=O)/C(=C/c2cccs2)C1 (stereo not shown) | -11.1
28 | CC1CN(C)C(C)C/C1=N/Oc1ccccc1[N+](=O)[O-].Cl (stereo not shown) | -26.5
29 | O=C1Nc2ccccc2C(O)(C(=O)NCc2ccc3c(c2)OCO3)N1c1ccc(Cl)c(Cl)c1 (stereo not shown) | 20.6
30 | O=S(=O)(Nc1cccc(-n2cnnn2)c1)c1ccccc1F | 17
31 | COc1ccccc1CNCC(c1ccccc1)c1ccccc1 | -42.4
32 | O=C(N/N=C/c1ccoc1)c1cc(Br)ccc1O | 14.2
33 | COc1ccc(CCNC(=O)c2ccccc2SC)cc1 | 17.5
34 | Cc1ccccc1NC(=S)NNC(=O)c1ccoc1C | -0.225
35 | CCOc1ccccc1NC(=O)c1cnc(NS(=O)(=O)c2ccccc2)nc1 | 17.8
36 | Cc1ccc(OC(C)C(=O)O)cc1C (stereo not shown) | -3.33
37 | COc1ccc2cc(CCNC(=O)c3cccc([N+](=O)[O-])c3)c(=O)[nH]c2c1 | -79.2
38 | CC(C)(C)CC(=O)NC(=S)N1CCCCCC1 | 7.63
39 | C=CCN(Cc1nc(-c2ccccc2)no1)C(=O)c1ccoc1C | -4.69
40 | CN(C)C=O.CN(C)S(=O)(=O)c1cccc(NC(=O)CSc2ncnc3ccccc23)c1 | -29

Row | Structure (SMILES) | hERG current change (%, negative = inhibition) at 10uM [%]
41 | CCCCC1(C)NC(=S)N2N1C(=S)NC2(C)CCCC (stereo not shown) | 15.1
42 | CC(C)Cc1cc(CN2CCCC(CO)(Cc3cccc(Cl)c3)C2)[nH]n1 (stereo not shown) | -52.5
43 | CC(C(=O)Nc1ncccn1)(c1ccccc1)c1ccccc1 | 2.84
44 | Cc1ccc(Cn2ncc3c(N4CCN(CC#N)CC4)ncnc32)cc1 | -6.38
45 | Nc1nnn(CC(=O)N/N=C/c2cccc3ccccc23)n1 | -5.39
46 | CCN(CC)c1ccc(C(=O)O)cc1 | 7.74
47 | CC(C)C(=O)NC(=S)Nc1ccc(S(=O)(=O)N2CCCC2)cc1 | 8.95
48 | CC1CCC(=NNc2ccc(C(F)(F)F)cc2[N+](=O)[O-])CC1 (stereo not shown) | 15.2
49 | O=C(CCSCc1ccccc1Cl)NC1CCCCC1 | 44.9
50 | Cc1ccc(NC(=O)CNC(=O)Cn2cnc3sc(C)c(C)c3c2=O)cc1F | 3.52
51 | COc1cccc(N2CCN(C(=O)c3ccc(CS(=O)c4ccccc4Cl)o3)CC2)c1 (stereo not shown) | -30.8
52 | Cc1cccc(N(CC(O)CN(C)C)S(=O)(=O)c2ccccc2)c1.Cl (stereo not shown) | -63
53 | Cc1ccc(NC(=O)c2cc(-c3cccs3)nc3ccccc23)nc1 | -9.72
54 | COc1cccc(S(=O)(=O)c2nc(C)c3c(n2)CCC3)c1 | -17.3
55 | CCOC(=O)N1CCc2c(sc(NC(=O)CN(CC)CC)c2C#N)C1 | -9.82
56 | COc1ccccc1CNC(=O)c1ccc(Br)o1 | 3.48
57 | Cc1cc(O)cc(=O)n1CCc1ccccc1 | 15.7
58 | Cn1cc(C(=O)C(=O)N2CCOCC2)c2ccccc21 | 4.36
